Read-outs that look alike come from different tables or passages of the source. These are yes or no findings as the source states them, for the method shown. Some binding calls cover weakened binding; strength is not graded here. For some of these results: Where a sequence is shown, tags or fusion partners need not be part of it. One block for each molecule: values may come before it.
Tests used:
[1] = target: GFP–FL-MYO18A (mouse) (UniProt Q9JMH9); experiment: NanoSPD; HeLa cells transfected with MYO10^NANOTRAP, a GFP- (or mEMERALD-) tagged bait and an mCherry-tagged prey; co-transport of the prey to filopodial tips; fixed about 24 h after transfection
[2] = target: HCBD–GST (helical cargo-binding domain of mouse Myo6, residues 1052–1096) (mouse) (UniProt Q64331); experiment: pull-down; GST pulldown; proteins mixed at 1 µM each in 40 µl of 150 mM NaCl, 1 mM EDTA, 10 mM Tris-HCl pH 7.5; 1 h at room temperature, then glutathione–Sepharose 4B for 1 h; eluted with SDS, stained gel; both purified
[3] = target: mEMERALD–CTNNB1 (mouse) (UniProt Q02248); experiment: NanoSPD; HeLa cells transfected with MYO10^NANOTRAP, a GFP- (or mEMERALD-) tagged bait and an mCherry-tagged prey; co-transport of the prey to filopodial tips; fixed about 24 h after transfection
[4] = target: T1, GFP–APPL2 (mouse) (UniProt Q8K3G9); experiment: as above
T1 sequence: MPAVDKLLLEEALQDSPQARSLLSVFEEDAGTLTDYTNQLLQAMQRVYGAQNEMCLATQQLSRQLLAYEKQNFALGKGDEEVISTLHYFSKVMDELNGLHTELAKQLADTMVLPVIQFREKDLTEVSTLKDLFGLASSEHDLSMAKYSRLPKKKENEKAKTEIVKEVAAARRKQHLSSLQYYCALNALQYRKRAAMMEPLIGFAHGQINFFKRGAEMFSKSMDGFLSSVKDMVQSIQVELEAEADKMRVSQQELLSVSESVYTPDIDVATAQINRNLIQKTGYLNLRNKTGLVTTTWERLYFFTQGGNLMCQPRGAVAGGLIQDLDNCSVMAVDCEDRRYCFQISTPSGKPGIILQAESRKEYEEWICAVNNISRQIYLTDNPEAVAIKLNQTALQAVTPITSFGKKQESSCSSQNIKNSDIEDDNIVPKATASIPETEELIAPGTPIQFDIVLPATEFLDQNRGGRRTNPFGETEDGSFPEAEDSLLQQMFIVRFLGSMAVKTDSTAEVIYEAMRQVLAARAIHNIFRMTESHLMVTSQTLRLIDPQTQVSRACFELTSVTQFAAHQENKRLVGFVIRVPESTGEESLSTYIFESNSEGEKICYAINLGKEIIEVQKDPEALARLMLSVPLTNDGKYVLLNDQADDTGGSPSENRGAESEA

The chains behind the UniProt entries cited, without tags or fusion partners. Where a name states a change or a piece, a line headed by the entry shows the natural chain unless it says otherwise. Residues count along the entry.
UniProt Q9JMH9: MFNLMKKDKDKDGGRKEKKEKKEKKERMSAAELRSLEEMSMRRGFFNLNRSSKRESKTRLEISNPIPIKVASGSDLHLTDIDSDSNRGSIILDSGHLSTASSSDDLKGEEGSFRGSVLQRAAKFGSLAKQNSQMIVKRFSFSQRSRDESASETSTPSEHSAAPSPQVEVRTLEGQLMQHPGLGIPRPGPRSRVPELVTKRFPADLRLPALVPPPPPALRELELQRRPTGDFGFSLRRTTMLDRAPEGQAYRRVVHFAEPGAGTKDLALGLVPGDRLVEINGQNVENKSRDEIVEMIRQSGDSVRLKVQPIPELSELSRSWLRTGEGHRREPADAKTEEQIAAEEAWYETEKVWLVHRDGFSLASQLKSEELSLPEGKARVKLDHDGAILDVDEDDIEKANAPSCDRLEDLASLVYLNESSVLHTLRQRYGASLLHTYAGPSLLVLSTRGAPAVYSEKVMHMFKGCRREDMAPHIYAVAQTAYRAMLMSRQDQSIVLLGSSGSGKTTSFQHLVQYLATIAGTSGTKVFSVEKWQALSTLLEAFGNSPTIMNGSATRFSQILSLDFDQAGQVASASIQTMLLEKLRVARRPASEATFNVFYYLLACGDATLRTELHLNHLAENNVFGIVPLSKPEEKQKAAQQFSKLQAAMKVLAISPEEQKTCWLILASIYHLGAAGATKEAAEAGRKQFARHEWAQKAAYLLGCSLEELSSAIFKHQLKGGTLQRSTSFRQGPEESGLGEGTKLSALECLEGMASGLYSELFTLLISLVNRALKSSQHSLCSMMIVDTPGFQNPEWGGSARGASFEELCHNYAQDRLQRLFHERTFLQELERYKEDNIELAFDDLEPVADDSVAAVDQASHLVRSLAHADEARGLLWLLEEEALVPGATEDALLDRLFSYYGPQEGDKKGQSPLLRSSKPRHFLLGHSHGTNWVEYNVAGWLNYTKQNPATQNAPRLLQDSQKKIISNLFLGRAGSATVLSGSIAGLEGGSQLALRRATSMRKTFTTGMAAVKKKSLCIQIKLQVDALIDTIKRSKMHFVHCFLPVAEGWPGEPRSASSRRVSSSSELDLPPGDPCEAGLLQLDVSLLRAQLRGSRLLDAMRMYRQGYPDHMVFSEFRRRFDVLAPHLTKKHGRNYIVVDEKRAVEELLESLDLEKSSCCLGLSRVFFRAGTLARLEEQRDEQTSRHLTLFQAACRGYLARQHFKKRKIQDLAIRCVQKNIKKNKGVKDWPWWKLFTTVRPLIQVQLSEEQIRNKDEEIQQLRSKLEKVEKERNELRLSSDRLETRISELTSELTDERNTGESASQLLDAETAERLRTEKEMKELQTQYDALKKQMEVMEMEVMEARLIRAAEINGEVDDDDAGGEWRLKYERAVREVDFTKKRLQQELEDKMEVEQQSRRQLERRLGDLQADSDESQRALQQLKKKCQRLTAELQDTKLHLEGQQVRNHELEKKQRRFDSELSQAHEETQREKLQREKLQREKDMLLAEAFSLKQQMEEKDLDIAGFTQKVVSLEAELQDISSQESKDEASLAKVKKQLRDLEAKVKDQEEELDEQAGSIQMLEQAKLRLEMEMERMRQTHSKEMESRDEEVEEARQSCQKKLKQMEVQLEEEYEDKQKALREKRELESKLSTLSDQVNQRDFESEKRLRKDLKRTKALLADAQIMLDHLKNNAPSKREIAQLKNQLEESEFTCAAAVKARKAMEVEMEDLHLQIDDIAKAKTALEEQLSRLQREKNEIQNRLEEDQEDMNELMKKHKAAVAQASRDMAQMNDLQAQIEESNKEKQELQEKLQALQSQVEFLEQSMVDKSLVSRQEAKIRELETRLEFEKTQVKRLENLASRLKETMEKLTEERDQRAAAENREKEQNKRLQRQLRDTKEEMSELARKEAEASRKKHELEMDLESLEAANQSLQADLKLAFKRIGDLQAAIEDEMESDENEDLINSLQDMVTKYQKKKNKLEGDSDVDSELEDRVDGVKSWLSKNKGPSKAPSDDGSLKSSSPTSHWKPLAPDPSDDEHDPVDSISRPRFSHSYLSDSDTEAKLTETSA
UniProt Q64331: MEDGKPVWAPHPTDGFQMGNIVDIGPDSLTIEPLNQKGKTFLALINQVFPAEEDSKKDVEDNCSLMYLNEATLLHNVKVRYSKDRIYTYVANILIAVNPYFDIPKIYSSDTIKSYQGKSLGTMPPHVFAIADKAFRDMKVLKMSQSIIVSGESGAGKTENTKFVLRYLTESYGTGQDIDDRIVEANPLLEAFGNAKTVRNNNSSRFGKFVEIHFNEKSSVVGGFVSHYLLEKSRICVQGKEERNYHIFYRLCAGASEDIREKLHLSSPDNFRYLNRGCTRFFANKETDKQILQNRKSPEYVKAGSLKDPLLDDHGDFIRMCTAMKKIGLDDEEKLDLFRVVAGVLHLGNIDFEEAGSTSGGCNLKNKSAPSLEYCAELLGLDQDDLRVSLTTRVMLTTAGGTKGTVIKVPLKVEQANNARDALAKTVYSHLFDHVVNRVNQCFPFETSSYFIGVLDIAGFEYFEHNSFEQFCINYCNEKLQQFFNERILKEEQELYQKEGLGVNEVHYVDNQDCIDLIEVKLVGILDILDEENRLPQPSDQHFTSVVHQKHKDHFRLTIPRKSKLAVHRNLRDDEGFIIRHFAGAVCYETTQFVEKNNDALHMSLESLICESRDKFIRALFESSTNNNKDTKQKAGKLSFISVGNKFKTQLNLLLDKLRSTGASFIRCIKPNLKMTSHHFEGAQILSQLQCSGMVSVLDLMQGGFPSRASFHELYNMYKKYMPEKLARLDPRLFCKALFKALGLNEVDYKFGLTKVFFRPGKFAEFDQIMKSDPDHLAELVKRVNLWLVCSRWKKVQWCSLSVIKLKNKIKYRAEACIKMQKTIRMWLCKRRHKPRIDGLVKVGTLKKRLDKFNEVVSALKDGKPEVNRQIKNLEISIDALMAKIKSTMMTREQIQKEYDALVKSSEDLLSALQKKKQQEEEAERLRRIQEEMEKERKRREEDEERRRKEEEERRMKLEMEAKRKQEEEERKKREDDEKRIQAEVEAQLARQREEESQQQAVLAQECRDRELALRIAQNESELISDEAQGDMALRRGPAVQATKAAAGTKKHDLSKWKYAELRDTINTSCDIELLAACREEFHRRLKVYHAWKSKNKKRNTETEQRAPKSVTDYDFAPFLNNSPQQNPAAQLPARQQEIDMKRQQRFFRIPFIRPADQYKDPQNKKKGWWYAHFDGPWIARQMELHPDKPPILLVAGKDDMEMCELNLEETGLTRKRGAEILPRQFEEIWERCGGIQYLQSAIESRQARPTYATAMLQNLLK
HCBD–GST (helical cargo-binding domain of mouse Myo6, residues 1052–1096): residues 1052-1096 of Q64331
UniProt Q02248: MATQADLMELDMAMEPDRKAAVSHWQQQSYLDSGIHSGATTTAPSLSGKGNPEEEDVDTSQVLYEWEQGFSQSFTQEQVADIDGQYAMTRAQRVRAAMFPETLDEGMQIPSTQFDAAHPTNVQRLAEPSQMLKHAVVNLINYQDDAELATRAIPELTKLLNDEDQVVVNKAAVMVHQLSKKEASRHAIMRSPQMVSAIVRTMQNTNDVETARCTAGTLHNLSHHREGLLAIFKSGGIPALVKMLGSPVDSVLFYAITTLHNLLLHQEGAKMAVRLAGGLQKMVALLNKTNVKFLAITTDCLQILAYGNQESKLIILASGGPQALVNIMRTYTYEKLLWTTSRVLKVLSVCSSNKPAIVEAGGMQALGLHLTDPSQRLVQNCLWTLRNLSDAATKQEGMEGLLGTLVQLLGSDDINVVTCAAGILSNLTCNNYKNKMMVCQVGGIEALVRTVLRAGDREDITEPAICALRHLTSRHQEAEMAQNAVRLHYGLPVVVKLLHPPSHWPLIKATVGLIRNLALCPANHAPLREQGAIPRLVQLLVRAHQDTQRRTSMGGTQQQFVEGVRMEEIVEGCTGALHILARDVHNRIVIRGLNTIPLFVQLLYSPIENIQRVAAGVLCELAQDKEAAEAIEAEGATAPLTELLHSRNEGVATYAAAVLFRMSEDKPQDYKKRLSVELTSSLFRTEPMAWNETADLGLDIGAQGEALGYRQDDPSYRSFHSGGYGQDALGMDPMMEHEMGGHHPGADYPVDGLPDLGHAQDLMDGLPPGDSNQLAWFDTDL

[5] = target: GFP–FL-MYO18A (mouse) (UniProt Q9JMH9); experiment: as above; remark: listed apart in the source

- binding [1]: no binding
Molecule: mCh–MYO6 (from UniProt Q64331 1-1262)

- binding [2]: binds
B1: GIPC3 PDZ-GH2 domains (93–297), MBP-tagged (protein)
chain: GETKEVEVTKTEDALGLTITDNGAGYAFIKRIKEGSIINRIEAVCVGDSIEAINDHSIVGCRHYEVAKMLRELPKSQPFTLRLVQPRRAFDMIGQRSRSSKCPVEAKVSSGRETLRLRSGGAATVEEAPSDVEAAAARRVDDLLESYMGIRDPELAAAVVETARSSAGAQAFARGLDAVLGEFAFPDEFVVEVWAAIGEAHDACG

- binding [2]: binds weakly
B2: Full-length GIPC3 (residues 1–297), MBP-tagged (protein, UniProt Q8R5M0 1-297)
chain: MDSAAPREPGATEPPARARPRLVFRTQLAHGSPTGRIEGFTNVRELYAKIAEAFGIAPTEILFCTLNSHKVDMQKLLGGQIGLEDFIFAHVRGETKEVEVTKTEDALGLTITDNGAGYAFIKRIKEGSIINRIEAVCVGDSIEAINDHSIVGCRHYEVAKMLRELPKSQPFTLRLVQPRRAFDMIGQRSRSSKCPVEAKVSSGRETLRLRSGGAATVEEAPSDVEAAAARRVDDLLESYMGIRDPELAAAVVETARSSAGAQAFARGLDAVLGEFAFPDEFVVEVWAAIGEAHDACG

- binding [3]: binds
- binding [4]: binds
- binding [5]: binds
B3: mCherry–GIPC3 (protein, UniProt Q8R5M0 1-297)
chain: MDSAAPREPGATEPPARARPRLVFRTQLAHGSPTGRIEGFTNVRELYAKIAEAFGIAPTEILFCTLNSHKVDMQKLLGGQIGLEDFIFAHVRGETKEVEVTKTEDALGLTITDNGAGYAFIKRIKEGSIINRIEAVCVGDSIEAINDHSIVGCRHYEVAKMLRELPKSQPFTLRLVQPRRAFDMIGQRSRSSKCPVEAKVSSGRETLRLRSGGAATVEEAPSDVEAAAARRVDDLLESYMGIRDPELAAAVVETARSSAGAQAFARGLDAVLGEFAFPDEFVVEVWAAIGEAHDACG

- binding [2]: no binding (tested: 1 µM each)
B4: GIPC3 PDZ (93–181), MBP-tagged (protein)
chain: GETKEVEVTKTEDALGLTITDNGAGYAFIKRIKEGSIINRIEAVCVGDSIEAINDHSIVGCRHYEVAKMLRELPKSQPFTLRLVQPRRA

From PMC10234109 (2023)
